{"source": "PubChem BioAssay AID1345082", "about": "(National Center for Advancing Translational Sciences (NCATS), 2018)", "note": "“And” between values parts separate entries of the source, which are not always exact repeats. Equal values may be shown once. About 4,000 (4.3%) of roughly 94,000 compounds were called active. The inconclusive results got no clear call from the source; some entries with a clear call stand among them for comparison. Calls come from the whole dose curve; as a rule, active = well fitted inhibition curve with a large enough effect; inconclusive = small, poorly fitted or top-dose-only effect; inactive = no such curve, though single readings can be large or run the other way. Potencies beside an inconclusive call are fits to weak or partial responses and may not hold up. % is set by controls: 0 for no effect and ±100 for the full control effect; potency is the fitted concentration of half-maximal effect; tags give direction and shape of the fitted curve."}
{"assay": "Cytotoxic Profiling in NIH 3T3 Cell Line of Diverse Libraries Using Quantitative High-Throughput Screening; note: nearly all actives have a fitted effect of over 55% in size", "details": "NIH 3T3 viability, CellTiter-Glo ATP luminescence, 48-72 h; activity change, negative = cytotoxicity: at 96.7 µM (top of the series) unless noted; series mostly up to 96.7 µM", "how_it_was_run": "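Viability of NIH 3T3 cells after 48 or 72 hr compound treatment at 37 °C was assessed by CellTiter-Glo, with luminescence imaged following a 10 min room-temperature step.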"}
{"smiles": "O=[S+]1([O-])NCC2(CCN(Cc3ccsc3)CC2)Nc2ccccc21", "activity change, negative = cytotoxicity": "inactive: -14.2%"}
{"smiles": "O=C(NCc1ccccc1)N1CCCC(c2noc(COc3ccccc3F)n2)C1", "note": "(stereo unspecified)", "Potency": "inconclusive: 39.8 µM [inhibitor, partial curve, poor fit]"}
{"smiles": "CC(C)(C)c1ccc(-c2cc(C[C@H]3CNCC[C@H]3CC(=O)N3CCN(c4ccc(F)cc4)CC3)no2)cc1", "Potency": "inconclusive: 89.1 µM [inhibitor, partial curve, poor fit]"}
{"smiles": "COc1ccc(-n2nc(C3CCCN(C(=O)c4ccccc4Cl)C3)[nH]c2=O)cc1", "note": "(stereo unspecified)", "Potency": "inconclusive: 50.1 µM [inhibitor, partial curve, poor fit]"}
{"smiles": "COc1cccc(-c2cn3cc(C(=O)NC4CC4)nc3s2)c1", "Potency": "inconclusive: 35.5 µM [inhibitor, partial curve, poor fit]"}
{"smiles": "Cc1nc(-c2ccccc2)n(Cc2cccc(C(F)(F)F)c2)c(=O)c1CCO", "Potency": "inconclusive: 44.7 µM [inhibitor, partial curve, poor fit]"}
{"smiles": "COC1CN(c2ccc(C)cc2)C12CCN(C(=O)C1CCCC1)CC2", "note": "(stereo unspecified)", "Potency": "inconclusive: 44.7 µM [inhibitor, partial curve, poor fit]"}
{"smiles": "O=C(Nc1ccccc1)C1CC(=O)N(c2n[nH]c3cc(Br)ccc23)C1", "note": "(stereo unspecified)", "outcome": "inactive"}
{"smiles": "Cc1nc(-c2cccc(Cl)c2)n(CC(=O)Nc2ccccc2)c(=O)c1CCO", "Potency": "inconclusive: 44.7 µM [inhibitor, partial curve, poor fit]"}
{"smiles": "O=C(NCCc1ccc(F)cc1)C1CCCN(c2nc3ncccc3o2)C1", "note": "(stereo unspecified)", "Potency": "inconclusive: 50.1 µM [inhibitor, partial curve, poor fit]"}
{"smiles": "Cc1cc(=O)n(CC(=O)Nc2ccccc2F)c(N2CCc3ccccc3C2)n1", "activity change, negative = cytotoxicity": "inactive: -22.1%"}
{"smiles": "Cc1[nH]c2ccccc2c1CC(=O)NC1CCCc2nc(N(C)C)ncc21", "note": "(stereo unspecified)", "Potency": "inconclusive: 25.1 µM [inhibitor, single point]"}
{"smiles": "COc1ccc(-c2cc3c(c(OC)c2)OCCNC3)nn1", "activity change, negative = cytotoxicity": "inactive: -2.39%"}
{"smiles": "CCCC1=Nc2cc(C(=O)NCCc3ccc(C)cc3)ccc2Sc2ccc(C)cc21", "Potency": "inconclusive: 7.08 µM [inhibitor, full curve, poor fit]"}
{"smiles": "COC(=O)[C@@H](Cc1cccnc1)NC(=O)[C@H]1CN(C(C)=O)CCN1C(C)=O", "activity change, negative = cytotoxicity": "inactive: -1.13% [at 138 µM]"}
{"smiles": "CCOc1cc(CN(C)C(=O)c2cc(C)sc2NC(=O)C(C)(C)C)ccc1OC", "activity change, negative = cytotoxicity": "inactive: -11.4%"}
{"smiles": "COc1ccc(N2CCN(C(=O)CN3C(=O)NC4(CCCCC4)C3=O)CC2)cc1", "activity change, negative = cytotoxicity": "inactive: -9.49%"}
{"smiles": "O=C(c1ccncc1)N1CCc2nc3cc(-c4ccccc4Cl)[nH]n3c(=O)c2C1", "Potency": "inconclusive: 12.6 µM [inhibitor, full curve, poor fit]"}
{"smiles": "COc1ccc(C(=O)NC[C@H]2COCc3nc4cc(C(F)(F)F)ccc4n32)cc1", "Potency": "inconclusive: 100 µM [inhibitor, partial curve, poor fit]"}
{"smiles": "O=C(c1ccccc1)N1CCC2(CC1)C(=NC1CCCCC1)NC(=O)N2c1cccnc1", "Potency": "inactive and inconclusive: 63.1 µM [inhibitor, partial curve, poor fit]"}
{"smiles": "Cc1ccc(-c2cc(C(=O)NCc3ccc(C(F)(F)F)cc3)c3cnn(C)c3n2)c(C)c1", "Potency": "inconclusive: 20 µM [inhibitor, full curve]"}
{"smiles": "COc1ccccc1OCCNC(=O)c1cn2ccnc(-c3ccccc3)c2n1", "Potency": "inconclusive: 44.7 µM [inhibitor, partial curve, poor fit]"}
{"smiles": "Cc1cc(C)cc(NC(=O)c2cc3n(n2)CC(c2ccc4c(c2)OCO4)OC3)c1", "note": "(stereo unspecified)", "Potency": "inconclusive: 70.8 µM [inhibitor, single point]"}
{"smiles": "O=C(NCc1cccs1)c1ccc2nnc(-c3cc(C(F)(F)F)cc(C(F)(F)F)c3)n2c1", "Potency": "inconclusive: 44.7 µM [inhibitor, partial curve, poor fit]"}
{"smiles": "O=C(O)CN1CCNc2nc(CNc3ccc(F)cc3)n(Cc3ccccc3)c2C1=O", "Potency": "inconclusive: 112 µM [inhibitor, single point]"}
{"smiles": "COc1ccc(-c2cc3c(cn2)CN(Cc2ccccc2)CCN3)cc1OC", "Potency": "active: 44.7 µM"}
{"smiles": "COc1ccc2[nH]c3c(c2c1)CCN(C)C31CCN(C(=O)Cc2ccncc2)CC1", "Potency": "inconclusive: 79.4 µM [inhibitor, partial curve, poor fit]"}
{"smiles": "COc1cccc(-c2cc(C(=O)NCCCNC(=O)OC(C)(C)C)c3cnn(C)c3n2)c1", "Potency": "inconclusive: 44.7 µM [inhibitor, partial curve, poor fit]"}
{"smiles": "CCCCOC(=O)N1CC(=O)N(Cc2ccco2)CC(O)C1", "note": "(stereo unspecified)", "activity change, negative = cytotoxicity": "inactive: -33.4%"}
{"smiles": "Cc1nn2c(c1-c1cccnc1N1CCOCC1)N(C(=O)Cc1cccc(Cl)c1)CCC2", "Potency": "inconclusive: 44.7 µM [inhibitor, partial curve, poor fit]"}
{"smiles": "Cc1c(CC(=O)N2CCOCC2)c2c(n1Cc1ccc(F)cc1)CCCC2=O", "Potency": "inconclusive: 22.4 µM [inhibitor, full curve]"}
{"smiles": "Cc1ccccc1-c1cnc2[nH]cc(CC(=O)NCc3ccccc3)c2c1", "activity change, negative = cytotoxicity": "inactive: -21% [at 138 µM]"}
{"smiles": "Cn1cc(C2CCN(C(=O)c3c(Cl)cc(Cl)cc3Cl)CC2)c2ccccc21", "Potency": "inconclusive: 28.2 µM [inhibitor, full curve]"}
{"smiles": "COc1ccc(OCc2nc(C3CN(C(=O)Cc4ccccc4F)C3)no2)cc1", "Potency": "inconclusive: 44.7 µM [inhibitor, partial curve, poor fit]"}
{"smiles": "CO[C@H]1C(=O)N(C(C)C)[C@H]1C1CCN(S(=O)(=O)c2cccc3cccnc23)CC1", "activity change, negative = cytotoxicity": "inactive: -12.4%"}
{"smiles": "CS(=O)(=O)N1CCC(C2CCN(C(=O)CC3=CCCCC3)C2)CC1", "note": "(stereo unspecified)", "activity change, negative = cytotoxicity": "inactive: -20.5%"}
{"smiles": "O=C(Cc1c[nH]c2ncc(-c3ccccc3F)cc12)N1CCOCC1", "Potency": "inconclusive: 39.8 µM [inhibitor, partial curve, poor fit]"}
{"smiles": "CCOc1ccc(NC(=O)COc2cccc(-c3nnc4n3CCCC4)c2)cc1", "activity change, negative = cytotoxicity": "inactive: -14.5%"}
{"smiles": "Cc1nonc1CC(=O)N[C@@H]1COCC[C@@H]1OCc1cscn1", "activity change, negative = cytotoxicity": "inactive: -0.108%"}
{"smiles": "COCCCn1c(=O)c(C(=O)Nc2ccc(F)cc2)nc2cccnc21", "activity change, negative = cytotoxicity": "inactive: -27.4% [at 138 µM]"}
{"smiles": "CCOCC(=O)N1CCc2nc3cc(-c4ccc(OC)cc4)[nH]n3c(=O)c2C1", "Potency": "inconclusive: 35.5 µM [inhibitor, partial curve]"}
